# Source: the supplement of paper PMC10126150
# Values marked as one replicate rest on one cluster of the flow cell; about a third of the high ones do not repeat.
# Test system: ATP
# Assay: switch fluorescence ratio, 500 uM ATP over buffer (Cy3 cluster intensity, sum of 5 cycles each) (fold (ratio)); higher = stronger signal-on switching upon ATP binding; sequences stand for … in TCGTCGGCAGCGTCAGATGTGTATAAGAGACAGTTTTTTTTTTTTTTTTTTTTTTTTT…TC
# Details: aptamer strand: ATP DNA aptamer (quencher-CACCTGGGGGAGTATTGCGGAGGAAGG + anchor), 100 nM annealed; ATP concentration: 500 uM; one replicate
# Procedure, shortened: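 Switching-strand clusters labelled with Cy3 on a modified Illumina MiSeq flow-cell were annealed to 100 nM quencher-labelled ATP aptamer, imaged in selection buffer, and re-imaged after 15 min with 500 uM ATP at 22 °C. This was done over five cycles with NaOH stripping and re-annealing in between. The fluorescence ratio is summed target-cycle over summed buffer-cycle Cy3 intensity per cluster, averaged per switch-domain sequence, excluding clusters outside 100-1000 RFU.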
# 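Further: ATP exposure 15 min at 22 °C before imaging.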
sequence,measurement,value
TCGATCGCTC,switch fluorescence ratio,2.45
TCGGGTCACA,switch fluorescence ratio,0.995
TGCCTTATAC,switch fluorescence ratio,1.55
GTTTACAGC,switch fluorescence ratio,0.986
GGTGTTGCG,switch fluorescence ratio,0.976
AAAGAGAGG,switch fluorescence ratio,1.09
TCATCAACGA,switch fluorescence ratio,1.02
AGGCGGGTCT,switch fluorescence ratio,1.02
GCCAGAGCTT,switch fluorescence ratio,1.06
TGCAGAAAAA,switch fluorescence ratio,1.01
CTACCTGACC,switch fluorescence ratio,1.81
CATTTTGGAT,switch fluorescence ratio,1.07
AGAAGGGTA,switch fluorescence ratio,1.01
TTATGGTG,switch fluorescence ratio,1.03
ACAACTCGTA,switch fluorescence ratio,0.993
ACGAGCTTC,switch fluorescence ratio,1.09
CCATATAAAA,switch fluorescence ratio,0.998
TTGTAGTG,switch fluorescence ratio,1.05
TGGGTCTATT,switch fluorescence ratio,1.01
CGAATGGCTA,switch fluorescence ratio,0.968
CAGGATCTGA,switch fluorescence ratio,0.977
GGTTGACCTA,switch fluorescence ratio,1
CAGGCGAGTC,switch fluorescence ratio,0.997
CTGCGTGATC,switch fluorescence ratio,1.24
GAGTAAGTTG,switch fluorescence ratio,0.975
TTCTATCATT,switch fluorescence ratio,1.03
TCCCCCGTTG,switch fluorescence ratio,2.79
TGGTTCCACA,switch fluorescence ratio,1.04
TCATGAGTAT,switch fluorescence ratio,1.01
TCCCTATGT,switch fluorescence ratio,1.4
CATGGAAGGT,switch fluorescence ratio,0.992
ATATCATTGA,switch fluorescence ratio,1.01
CATCTTTAAC,switch fluorescence ratio,1.04
GCTTAAAGTG,switch fluorescence ratio,0.958
TCCATTAGAG,switch fluorescence ratio,1
TAAATTAGTC,switch fluorescence ratio,0.941
GTAGCAGGTA,switch fluorescence ratio,1.07
AACTACGCCG,switch fluorescence ratio,1.12
CAACTGTTCA,switch fluorescence ratio,1.02
TCTGAATGTT,switch fluorescence ratio,0.974
TGACGTCCG,switch fluorescence ratio,1.06
AGCAGTTTCT,switch fluorescence ratio,1
ATCAAAAGTT,switch fluorescence ratio,1.08
TTTAACGGAC,switch fluorescence ratio,1.36
AGCAAGATGT,switch fluorescence ratio,1.08
TGCTTGATAT,switch fluorescence ratio,0.995
GGGGCAAATC,switch fluorescence ratio,1.11
ACACATCCTC,switch fluorescence ratio,1.13
ACGGTGACGA,switch fluorescence ratio,1.04
CGTTATTCGC,switch fluorescence ratio,0.968
GACCAAGGAG,switch fluorescence ratio,1.03
TTGCTTCAGT,switch fluorescence ratio,0.989
TTGATTTTAT,switch fluorescence ratio,0.995
GACTTATGTT,switch fluorescence ratio,0.995
GGCAGGGAAT,switch fluorescence ratio,0.984
ACTTGTTAGC,switch fluorescence ratio,0.996
CGAGCATAAT,switch fluorescence ratio,1.84
GATTAGGTCG,switch fluorescence ratio,1.02
GGTGAGAGAG,switch fluorescence ratio,0.994
TGCATGGAAT,switch fluorescence ratio,0.979
CCTGATATGG,switch fluorescence ratio,1.04
TGAGAGTATA,switch fluorescence ratio,1.05
CAGAGGGACG,switch fluorescence ratio,1.12
ACTCGGCAGT,switch fluorescence ratio,4.35
AGCTTGGC,switch fluorescence ratio,1.01
AAATACCAT,switch fluorescence ratio,0.996
CTGGTTTCGC,switch fluorescence ratio,1.03
ACTCGCGATT,switch fluorescence ratio,1.48
TCACCACAGC,switch fluorescence ratio,1.08
TGCTGTTTCT,switch fluorescence ratio,0.961
TTCGTACT,switch fluorescence ratio,1.02
AGCGAGAAGA,switch fluorescence ratio,1.01
ACGCTTTGCC,switch fluorescence ratio,1
CAACTGTGAA,switch fluorescence ratio,1.02
GCGCGCCTGT,switch fluorescence ratio,1.01
TTTACTTCG,switch fluorescence ratio,1.05
TCTAACGGCG,switch fluorescence ratio,1
GGTTGTACGC,switch fluorescence ratio,1
ATACCTGGTT,switch fluorescence ratio,0.949
GTATTCAATC,switch fluorescence ratio,1
AGTGCAGTAT,switch fluorescence ratio,0.995
AGTTTAGGTG,switch fluorescence ratio,1.08
GAGTATTATT,switch fluorescence ratio,0.974
TGAGGACATG,switch fluorescence ratio,0.966
GCTATCGTGA,switch fluorescence ratio,1.02
CATGACGGTG,switch fluorescence ratio,0.979
GATCTTAAAC,switch fluorescence ratio,1.04
TCAGGGCATT,switch fluorescence ratio,1.03
GAAGCTGCGT,switch fluorescence ratio,1.02
CAATGTGGCA,switch fluorescence ratio,1.03
GGGACATCTG,switch fluorescence ratio,0.973
AAATTGCGCG,switch fluorescence ratio,0.959
GGGAGCACCT,switch fluorescence ratio,1.04
GTTTACTTT,switch fluorescence ratio,1.03
CAGGGCCGTT,switch fluorescence ratio,0.979
GGCATTTTG,switch fluorescence ratio,0.998
CGGTAGCATG,switch fluorescence ratio,1.16
TGCGATATG,switch fluorescence ratio,1.66
TATGAAATCC,switch fluorescence ratio,1
CCGTTTACTT,switch fluorescence ratio,1.33
ATCAGAATAA,switch fluorescence ratio,1.04
CAATCTGTAG,switch fluorescence ratio,1.01
GGTTCATCTG,switch fluorescence ratio,1.02
GTCGTACTC,switch fluorescence ratio,0.961
TCAGGGTCGA,switch fluorescence ratio,1.24
TAGGATGTTC,switch fluorescence ratio,1.01
ATAGTCTGTG,switch fluorescence ratio,0.961
TCCGGTGCGC,switch fluorescence ratio,1.23
TGATTTAATG,switch fluorescence ratio,0.969
TCCAGAAGTG,switch fluorescence ratio,1.08
AACAACTATT,switch fluorescence ratio,1.01
CCGTCACCCC,switch fluorescence ratio,1.43
CGACTGCAGA,switch fluorescence ratio,1.61
ACTTCAACGG,switch fluorescence ratio,1.23
GGTAGTGTGT,switch fluorescence ratio,1.02
GTTCGTGAAT,switch fluorescence ratio,0.994
CAATGCTGGT,switch fluorescence ratio,0.972
GCTATGAGG,switch fluorescence ratio,0.966
TAGCGTATAT,switch fluorescence ratio,1.04
TCACGATTAC,switch fluorescence ratio,1.47
GAATGCAGGT,switch fluorescence ratio,1.01
AGAGGTCTTC,switch fluorescence ratio,0.982
CGTACGATTT,switch fluorescence ratio,1.04
AGGAAATCCG,switch fluorescence ratio,0.996
TAATTCAGTC,switch fluorescence ratio,1.07
CTTTCTGGCG,switch fluorescence ratio,0.945
TATGGTGCTC,switch fluorescence ratio,1.02
CTCGGTTATC,switch fluorescence ratio,1.19
CATAAAAGGC,switch fluorescence ratio,0.992
TCGGGGTTAA,switch fluorescence ratio,0.971
TAAGGAAAAC,switch fluorescence ratio,1.05
TCTGAACCAA,switch fluorescence ratio,1.12
AGAGATGTCT,switch fluorescence ratio,1.06
GAAGGGCCCT,switch fluorescence ratio,1.03
CAATAGGTCT,switch fluorescence ratio,1.01
GGACTCTCGT,switch fluorescence ratio,1.02
GTATGTTATT,switch fluorescence ratio,1
GATAACCAAT,switch fluorescence ratio,0.983
AAGGAACGCG,switch fluorescence ratio,1.02
AGATCAGTTC,switch fluorescence ratio,1.08
AGTGCTAGA,switch fluorescence ratio,1.07
ACCAGACACG,switch fluorescence ratio,1.03
GCAATAGCTC,switch fluorescence ratio,3.81
CCGATTTGAG,switch fluorescence ratio,1.04
GTCGGTTTCG,switch fluorescence ratio,1.03
TATATTTGAT,switch fluorescence ratio,0.985
CCCAAACATC,switch fluorescence ratio,1.07
GCATTTTTT,switch fluorescence ratio,1.01
TTGCTCCTCG,switch fluorescence ratio,1.01
TCATTCAGAG,switch fluorescence ratio,0.985
TGAACTTAAG,switch fluorescence ratio,1.02
ACCAAAAG,switch fluorescence ratio,1.01
CGTGAAACGT,switch fluorescence ratio,1.03
GCTGACGTGT,switch fluorescence ratio,1.04
AGCCCAGAAG,switch fluorescence ratio,1.03
AGTTATGGCC,switch fluorescence ratio,1.01
AACGGCAGTC,switch fluorescence ratio,1.08
ATGTAAGTT,switch fluorescence ratio,0.958
AAGAGCATAC,switch fluorescence ratio,2.26
GTTAATATTC,switch fluorescence ratio,1.03
CCCACGGACC,switch fluorescence ratio,1.42
ATGCAGAGCA,switch fluorescence ratio,0.99
GACCCGAAGT,switch fluorescence ratio,0.974
ATTTTTAGGT,switch fluorescence ratio,1.01
GCACTTGATC,switch fluorescence ratio,0.964
AAAGTTACGC,switch fluorescence ratio,0.97
CCTAACGTAT,switch fluorescence ratio,1.23
ACGACAGTTC,switch fluorescence ratio,1.06
ATTGTATGAA,switch fluorescence ratio,0.981
GGCATTTGGG,switch fluorescence ratio,0.991
CATGGCCATT,switch fluorescence ratio,0.962
CATCGGGATT,switch fluorescence ratio,1.01
CAAAGGTGGG,switch fluorescence ratio,1.03
GTAGGATGAG,switch fluorescence ratio,0.956
CCATTATTTG,switch fluorescence ratio,1.01
GGGTGTATTC,switch fluorescence ratio,1.01
GGTGTGGGTT,switch fluorescence ratio,1.04
CGGTGTCGAA,switch fluorescence ratio,1.01
GTTACTGCGA,switch fluorescence ratio,1.09
CCAAGAATTT,switch fluorescence ratio,1.04
GGGTAGCCA,switch fluorescence ratio,1.01
ATCCCGATGT,switch fluorescence ratio,1.05
ACAGAGCCAT,switch fluorescence ratio,1.02
ACAAATAAGT,switch fluorescence ratio,0.939
ACCAGCGGGG,switch fluorescence ratio,1.06
CGGAAGGTGC,switch fluorescence ratio,1.38
GGATATGGGC,switch fluorescence ratio,1.03
AACTCGCCTG,switch fluorescence ratio,1.05
CATGAAAGGA,switch fluorescence ratio,0.976
GGTAAAGAAG,switch fluorescence ratio,0.992
ACATAGGCCG,switch fluorescence ratio,0.982
TCAACACTTT,switch fluorescence ratio,1
CTTGATCACG,switch fluorescence ratio,0.992
AGGGGCCTCT,switch fluorescence ratio,1.02
GTCAGTTTGA,switch fluorescence ratio,0.972
TATCAGAACT,switch fluorescence ratio,1.01
ATGCCGATTA,switch fluorescence ratio,0.98
GTGTGTTCAA,switch fluorescence ratio,0.994
GCTTCTGTTC,switch fluorescence ratio,1.05
AATGGGGAC,switch fluorescence ratio,1
CTAGTGATA,switch fluorescence ratio,1.17
